Experimental findings from PubChem BioAssay (NCI) are described below.

For this assay, the system named is NCI-H322M lung. The assay is described as follows: growth of human tumour cells (NCI), 48 h.

The structures appear in SMILES notation. “And” between values parts separate entries of the source, which are not always exact repeats. Equal values may be shown once.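 48-hour exposure; five concentrations; linearly interpolated endpoints. Abbreviation: GI50, concentration required for 50% inhibition of growth. At the TGI there is no net growth.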

`Cc1cc(C)c2c(-c3ccccc3)cc(=O)[nH]c2c1`: the TGI was above 100 µM.
On the same count and under the same terms, next, `CCOC(=O)Cn1nnc2ccc(Nc3nc4ccccc4nc3C(=O)OCC)cc21`: above 100 µM; `NCCNCCNCc1c2ccccc2c(CNCCNCCN)c2ccccc12`: 85.7 µM.
As for `O=c1cc(-c2cccc(Cl)c2)[nH]c2cc3c(cc12)OCO3`, the GI50 is 0.96 µM; the TGI is 75 µM and > 100 µM.
Turning to `CC(C)(C)CNCCO`, the TGI was above 100 µM.
Still for that read-out and setting: as for `O=C1/C(=C/c2cc(O)c(O)c(O)c2)Oc2cc(O)cc(OC3OC(CO)C(O)C(O)C3O)c21` (stereo not drawn), the figure is above 100 µM.
The same measure, in the same setting: as for `C[C@]12CCC(=O)C=C1CC[C@@H]1[C@@H]2CC[C@]2(C)C(=O)/C(=C/c3ccc([N+](=O)[O-])cc3)C[C@@H]12`, the figure is above 100 µM; as for `CN(C)c1ccc(-c2c(C#N)c(-c3ccccc3)n(NS(=O)(=O)c3ccccc3)c(=O)c2C#N)cc1`, above 100 µM; as for `O=[N+]([O-])C(/C(Cl)=C(/Cl)N1CCOCC1)=C1\Nc2ccccc2O1`, above 100 µM.
Still for that read-out and setting: as for `COc1cc(/C=C2\CC3C4CC=C5C[C@@H](O)CC[C@]5(C)C4CC[C@]3(C)\C2=N\O)cc(OC)c1OC` (stereo partly drawn), the figure is above 100 µM; as for `CCCCOc1ccc(/C=C/C2=[N+](CCO)CCO2)cc1`, above 100 µM.
The molecule `CC1(N2CCOCC2)CC2C(=[N+]1[O-])CCC/C2=N/O` (stereo not drawn) had a TGI above 100 µM.
Still for that read-out and setting: next, `Cc1ccccc1NC(=O)C(=O)C(C1OC(=O)c2ccccc21)[N+](=O)[O-]` (stereo not drawn): above 100 µM.
The same measure, in the same setting: next, `O=C1C(NS(=O)(=O)c2ccccc2)=C(n2ccnc2)C(=O)c2ccccc21`: above 100 µM.
The same measure, in the same setting: as for `COc1nc2ncc([C@@H](OC(C)=O)[C@@H](COC(C)=O)OC(C)=O)nc2c(=O)n1C`, the figure is above 100 µM.
For the molecule `C=CCn1c(SCC(=O)Nc2ccc(C(=O)/C=C/c3cc(OC)c(OC)c(OC)c3)cc2)nnc1-c1cc(OC)c(OC)c(OC)c1`, the GI50 was 6.85 µM and the TGI came out at 38.9 µM.
On to `Clc1cccc(-c2cc(-c3ccc4c(c3)OCCO4)[nH]n2)c1`, for which the GI50 is 11.9 µM and the TGI was 47.3 µM.
For `O=C(Nc1ccccc1/C=C/c1n[nH]c2ccccc12)c1ccccc1`, in that order: 4.8 µM and 18.2 µM.
For `N#CSc1c[nH]c2ccc(/C=C/C(=O)/C=C(O)/C=C/c3ccc4[nH]cc(SC#N)c4c3)cc12`, in that order: 16 µM and above 100 µM.
In turn, `C[C@]12CC[C@H]3[C@@H](CCC4=CC(=O)CC[C@@]43C)[C@]1(O)CC[C@]2(O)C(=O)CO` came in with a TGI above 100 µM.
The same measure, in the same setting: as for `CCOc1ccc2c(c1)[n+]([O-])c(C(N)=O)c(N)[n+]2[O-]`, the figure is above 100 µM; as for `Fc1ccc(/C=C2\COCC3=C2NC(=S)NC3c2ccc(F)cc2)cc1` (stereo not drawn), 59.5 µM.
Molecule `COC1CCC(O)C(CO)O1` (stereo not drawn) displayed a TGI above 100 µM.
On to `CC[O-].CC[O-].[O-]c1ccccc1C=NC12CC3CC(CC(C3)C1)C2.[O-]c1ccccc1C=NC12CC3CC(CC(C3)C1)C2.[Ti+4]`, for which the GI50 is above 100 µM and the TGI was above 100 µM.
For `CC(=O)N1N=C(c2ccccc2)NC(=O)C1c1cc(C)c(O)c(C)c1` (stereo not drawn), the TGI worked out at 80.1 µM.
Regarding `N#Cc1cnc2ccc(NCc3cnc[nH]3)cc2c1Nc1ccc(F)c(Cl)c1`, the GI50 was 1.15 µM and the TGI is above 100 µM.
Molecule `Cc1cc(C)c2c(c1)CSCc1cc(C)cc(C)c1-2` gave a TGI above 100 µM.
On the same count and under the same terms, next, `O=C1CC(Nc2ccccc2)c2c(Cl)sc(Cl)c21` (stereo not drawn): 15.9 µM.
Turning to `N#Cc1nc2cc(Cl)c(Cl)cc2nc1-c1ccc(Cl)cc1`, the GI50 was 40.7 µM and the TGI is above 80 µM.
The like results for `COc1ccc(-c2nn3ncccc3c2-c2ccnc(Nc3ccc(F)c(F)c3)n2)cc1` were, in that order, above 16 µM and above 25 µM.
In the case of `Nc1nc(N)c2cc(-c3cc4ccccc4[nH]3)ccc2n1`, the TGI was above 100 µM.
In the case of `COc1ccc2c(c1[N+](=O)[O-])CC[C@@H]1[C@@H]2CC[C@]2(C)C(=O)CC[C@@H]12`, the GI50 was above 884 µM and the TGI was above 1000 µM.
Consider `CSC(=Nc1ccc([N+](=O)[O-])cc1C#N)NC(=O)c1ccccc1`, for which the TGI is above 100 µM.
